In patent publication US7259004B1, “Endophytic streptomycetes from higher plants with biological activity” (Montana State University, priority 2002, dated 2007):

Tests used:
Assay type in all cases: cell-based
Conditions in all cases: Table 15
[1] = tested on: Bacillus anthracis 40/BA 100
Bacillus anthracis 28 = tested on: Bacillus anthracis 28
Bacillus anthracis 14578 = tested on: Bacillus anthracis 14578
Bacillus anthracis 62-8 = tested on: Bacillus anthracis 62-8

## kakadumycin A
[1]
  MIC Bacillus anthracis 40/BA 100: 0.3 micrograms/ml
Bacillus anthracis 28
  MIC Bacillus anthracis 28: 0.43 micrograms/ml
Bacillus anthracis 14578
  MIC Bacillus anthracis 14578: 0.55 micrograms/ml
Bacillus anthracis 62-8
  MIC Bacillus anthracis 62-8: 0.41 micrograms/ml
